{"source": "PubChem BioAssay (Tox21)", "note": "Inconclusive results are not listed. Unless noted, calls come from the whole dose curve; as a rule, active = well fitted curve in the direction sought with a large enough effect in the repeat runs; inconclusive = weak or mixed curves; inactive = no such curve, though single readings can be large; an effect the other way counts as inactive or inconclusive. More than one record can exist for a structure, and the calls need not agree. Not every entry of the source has a single result; some have several. Only these are listed. The source may hold further records. Results that share an entry are repeats in other runs, samples, wells, individuals or studies. A tag in brackets gives the origin of a value. Letters count within one entry. Potency is the fitted concentration of half-maximal effect."}
{"assay": "qHTS assay for small molecules that induce genotoxicity in human embryonic kidney cells expressing luciferase-tagged ATAD5 - cell viability (AID 651634; calls by dose curve; note: nearly all actives have a fitted effect of over 25% in size)", "conditions": "HEK293T ATAD5-luc cells viability, CellTiter-Fluor, 15.5 h; series mostly up to 83.3 µM", "method_in_brief": "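Quantitative high-throughput format. HEK293T cells expressing ATAD5 fused to luciferase were plated at 2,000 cells/well and treated 15.5 hr with compound versus DMSO. Viability was determined by fluorescent live-cell protease substrate, 30 min at 37C.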"}
{"smiles": "COc1cccc2c1C(=O)c1c(O)c3c(c(O)c1C2=O)C[C@@](O)(C(=O)CO)C[C@@H]3O[C@H]1C[C@H](N)[C@H](O)[C@H](C)O1", "Potency": "inactive [sample A] and active: 11.9 µM [sample B] and active: 27.3 µM [sample C]"}
{"smiles": "C=CC(C)(CCC=C(C)C)OC(C)=O", "note": "(configuration not stated)", "Potency": "inactive [sample A] and active: 48.6 µM [sample B]"}
{"smiles": "Cn1cnc([N+](=O)[O-])c1Sc1ncnc2nc[nH]c12", "Potency": "inactive [sample A] and active: 27.3 µM [sample B]"}
{"smiles": "CCCCC/C=C/C=C/C=O", "Potency": "active: 19.2 µM [sample A] and inactive [sample B]"}
{"assay": "qHTS assay to identify small molecule antagonists of the glucocorticoid receptor (GR) signaling pathway - cell viability counter screen (AID 720693); note: nearly all actives have a fitted effect of over 55% in size", "conditions": "GR-bla HeLa viability, CellTiter-Glo luminescence, 18 h, with 5 nM dexamethasone present; series mostly up to 58.5 µM"}
{"smiles": "C#C[C@]1(O)CC[C@H]2[C@@H]3CCC4=Cc5oncc5C[C@]4(C)[C@H]3CC[C@@]21C", "Potency": "inactive [sample A] and active: 54.9 µM [sample B]"}
{"smiles": "Oc1ccc(O)cc1", "Potency": "inactive [sample A] and active: 54.6 µM [sample B]"}
{"smiles": "Cc1ccc(C(=O)c2cc(O)c(O)c([N+](=O)[O-])c2)cc1", "Potency": "inactive [sample A] and active: 49 µM [sample B]"}
{"smiles": "COc1cccc2c1C(=O)c1c(O)c3c(c(O)c1C2=O)C[C@@](O)(C(=O)CO)C[C@@H]3O[C@H]1C[C@H](N)[C@H](O)[C@H](C)O1", "Potency": "inactive [sample A] and active: 12 µM [sample B] and active: 1.38 µM [sample C]"}
{"smiles": "CC(=O)O[C@]1(C(C)=O)CC[C@H]2[C@@H]3C=C(Cl)C4=CC(=O)[C@@H]5C[C@@H]5[C@]4(C)[C@H]3CC[C@@]21C", "Potency": "inactive [sample A] and active: 21.9 µM [sample B]"}
{"smiles": "Cn1cnc([N+](=O)[O-])c1Sc1ncnc2nc[nH]c12", "Potency": "inactive [sample A] and active: 866 nM [sample B]"}
{"assay": "qHTS assay to identify small molecule antagonists of the thyroid receptor (TR) signaling pathway (AID 743065); note: nearly all actives have a fitted effect of over 55% in size", "conditions": "GH3.TRE-Luc, T3-stimulated luciferase inhibition, 23.5 h; series mostly up to 70.3 µM", "method_in_brief": "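GH3.TRE-Luc rat pituitary cells (two TREs driving luciferase) were dosed with compound, then stimulated with 1 nM T3 (final) for 23.5 h at 37 C. ONE-Glo luminescence was the read-out, with CellTiter-Fluor fluorescence as the cytotoxicity counter-screen.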"}
{"smiles": "CCCCCCCCCCCO", "Potency": "inactive [sample A] and active: 27.3 µM [sample B]"}
{"smiles": "COc1cccc2c1C(=O)c1c(O)c3c(c(O)c1C2=O)C[C@@](O)(C(=O)CO)C[C@@H]3O[C@H]1C[C@H](N)[C@H](O)[C@H](C)O1", "Potency": "inactive [sample A] and active: 944 nM [sample B] and active: 86.2 nM [sample C]"}
{"smiles": "Cn1cnc([N+](=O)[O-])c1Sc1ncnc2nc[nH]c12", "Potency": "inactive [sample A] and active: 54.5 µM [sample B]"}
{"smiles": "C[C@]12CC[C@H]3[C@@H](CCC4=CC(=O)CC[C@@]43C)[C@@H]1CC[C@@H]2C(=O)CO", "Potency": "inactive [sample A] and active: 30.6 µM [sample B]"}
{"smiles": "CCCCC/C=C/C=C/C=O", "Potency": "inactive [sample A] and active: 68.6 µM [sample B]"}
{"smiles": "Brc1cc(Oc2cc(Br)c(Br)c(Br)c2Br)c(Br)c(Br)c1Br", "Potency": "active: 9.73 µM [sample A] and inactive [sample B]"}
{"assay": "A CellTox Green Cytotoxicity Assay to monitor cytotoxicity in HEK293 cells - 24 hour (AID 1224875); note: nearly all actives have a fitted effect of over 45% in size", "conditions": "CellTox Green fluorescence; series mostly up to 76.8 µM", "method_in_brief": "(§1)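 Homogeneous no-lysis format: HEK293 cell suspension mixed with CellTox Green reagent, seeded, incubated 5 h at 37 C/5% CO2, then dosed by pintool with compound in DMSO.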"}
{"smiles": "CC1=CC2C3CC(C=C3C)C2C1", "note": "(configuration not stated)", "Potency": "inactive [sample A] and active: 38.9 µM [sample B]"}
{"smiles": "OC1CCCCCCCCCCC1", "Potency": "inactive [sample A] and active: 43.6 µM [sample B]"}
{"smiles": "CCC(C)c1ccccc1O", "note": "(configuration not stated)", "Potency": "active: 34.4 µM [sample A] and inactive [sample B]"}
{"smiles": "CC(=O)C1(C)CC2=C(CCCC2(C)C)CC1C", "note": "(configuration not stated)", "Potency": "inactive [sample A] and active: 49 µM [sample B]"}
{"smiles": "c1ccc2c(c1)Oc1ccccc1S2", "Potency": "active: 55.8 µM [sample A] and inactive [sample B]"}
{"smiles": "Cn1cnc([N+](=O)[O-])c1Sc1ncnc2nc[nH]c12", "Potency": "active: 34.5 µM [sample A] and inactive [sample B]"}
{"smiles": "O=C(c1ccc(OCCN2CCCCC2)cc1)c1c(-c2ccc(O)cc2)sc2cc(O)ccc12", "Potency": "active: 49 µM [sample A] and inactive [sample B]"}
{"smiles": "c1ccc(Nc2ccccc2)cc1", "Potency": "active: 19.5 µM [sample A] and inactive [sample B]"}
{"assay": "A CellTox Green Cytotoxicity Assay to monitor cytotoxicity in HEK293 cells - 16 hour (AID 1224888); note: nearly all actives have a fitted effect of over 35% in size", "conditions": "CellTox Green fluorescence; series mostly up to 76.8 µM", "method_in_brief": "as §1"}
{"smiles": "CC1=CC2C3CC(C=C3C)C2C1", "note": "(configuration not stated)", "Potency": "inactive [sample A] and active: 27.5 µM [sample B]"}
{"smiles": "OC1CCCCCCCCCCC1", "Potency": "inactive [sample A] and active: 43.6 µM [sample B]"}
{"smiles": "CCC(C)c1ccccc1O", "note": "(configuration not stated)", "Potency": "active: 24.4 µM [sample A] and inactive [sample B]"}
